Measurements taken from PubChem BioAssay AID1347428 (National Center for Advancing Translational Sciences (NCATS), 2020).
Screen size: about 91,000 compounds; about 290 (0.32%) were called active. The shares of active, inactive and inconclusive entries below differ from those in the screen. Calls follow the shape of the dose curve; as a rule, active = well fitted inhibition curve with a large enough effect; inconclusive = small, poorly fitted or top-dose-only effect; inactive = no such curve, though single readings can be large or run the other way. Where the call is inconclusive, the potency comes from a doubtful curve fit.

Molecular target: Single-stranded DNA cytosine deaminase (Homo sapiens) (UniProt Q9GZX7)
Sequence of UniProt Q9GZX7 (Q9GZX7 whole entry, looked up): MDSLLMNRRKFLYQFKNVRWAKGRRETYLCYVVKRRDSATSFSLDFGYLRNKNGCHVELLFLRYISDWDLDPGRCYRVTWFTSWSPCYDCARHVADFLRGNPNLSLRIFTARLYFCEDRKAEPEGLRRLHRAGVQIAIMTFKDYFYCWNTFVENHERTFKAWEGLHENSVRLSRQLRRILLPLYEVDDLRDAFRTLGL
Assay: Primary qHTS assay for inhibitors of Activation Induced Cytidine Deaminase (AID): AID signal; also: nearly all actives have a fitted effect of over 25% in size
Conditions: AID deamination FRET fluorescence, UDG-coupled, 4 h; series mostly up to 115 µM
Potency is read from the fitted curve at half-maximal effect; tags tell the direction and shape of the fitted curve.

Row | Structure (SMILES) | Potency
1 | Cc1cccc(C)c1-n1ncc(C(=O)NCCCN2CCCCC2)c1C1CCN(C(=O)OC(C)(C)C)CC1 | inactive
2 | CC(=O)c1ccc(NC(=O)Nc2ccc3snnc3c2)cc1 | inconclusive: 2.82 µM [inhibitor, full curve, poor fit]
3 | COc1ccc(/C=C/C(=O)Nc2ccc(C)cc2)cc1 | inactive
4 | COc1cccc(CNC(=O)c2ccc(-c3nc(CS(=O)c4ccccc4)c(C)o3)cc2)c1 (centres undefined) | inconclusive: 79.4 µM [inhibitor, single point]
5 | COc1ccc2c(c1)Cc1sc(NC(=O)c3ccccc3C)nc1-2 | inconclusive: 35.5 µM [inhibitor, full curve, poor fit]
6 | CCN(CCCNC(=O)CSc1cc(=O)n(CC)c2ccccc12)c1ccccc1 | inconclusive: 89.1 µM [inhibitor, single point]
7 | COC(=O)C1=C(C)NC(=O)NC1c1cn(-c2ccccc2)nc1-c1ccc(OC)c(Br)c1 (centres undefined) | inconclusive: 70.8 µM [inhibitor, single point]
8 | Cc1ccc(S(=O)(=O)C(CNC(=O)COc2ccccc2)c2cccs2)cc1 (centres undefined) | active: 44.7 µM
9 | CCCN(CCC)C(=O)Cn1c(=O)n(CCCCCC(=O)Nc2ccccc2)c(=O)c2sccc21 | inconclusive: 3.55 µM [inhibitor, full curve, poor fit]
10 | CCOc1ccccc1OC(=O)c1ccccc1 | inactive
11 | COc1cc(OC)cc(C(=O)Nc2ccc3nc4c(c(Nc5ccc(OC)c(OC)c5)c3c2)CCCC4)c1 | inconclusive: 15.8 µM [inhibitor, partial curve, poor fit]
12 | CCCCc1ccc(Nc2cc(C)nc(-n3nc(C)cc3C)n2)cc1 | inconclusive: 25.1 µM [inhibitor, full curve, poor fit]
13 | O=C(NCCc1ccc(Cl)cc1)c1nnc(Cc2ccc(F)cc2)o1 | inconclusive: 89.1 µM [inhibitor, single point]
14 | CCOc1ccc(Br)cc1C1C(C#N)=C(N)Oc2cc3c(cc21)OCO3 (centres undefined) | inactive
15 | N#Cc1c(SCCN2CCCC2)nc(N2CCCC2)c2c1CCCC2 | inconclusive: 50.1 µM [inhibitor, partial curve, poor fit]
16 | O=C(Cn1nc(Cc2ccncc2)c2ccccc2c1=O)Nc1cccc(C(F)(F)F)c1 | inconclusive: 35.5 µM [inhibitor, partial curve, poor fit]
17 | Cc1ccc(CSCCC(=O)N2CCN(c3ccc(F)cc3)CC2)cc1 | inconclusive: 89.1 µM [inhibitor, single point]
18 | CS(=O)(=O)N(Cc1csc(-c2cccs2)n1)C1CCN(C(=O)c2ccccc2F)CC1 | inactive
19 | COc1ccc(N2CCN(C(=O)C3CCN(Cc4nc(-c5ccc(Cl)cc5)oc4C)CC3)CC2)cc1 | inactive
20 | O=C(COc1ccc(Cl)cc1)NCC(c1ccco1)S(=O)(=O)c1ccccc1 (centres undefined) | inconclusive: 89.1 µM [inhibitor, partial curve]
21 | Cc1ccn2c(Nc3ccccc3C)c(-c3ccc(N4CCOCC4)cc3)nc2c1 | inconclusive: 44.7 µM [inhibitor, partial curve, poor fit]
22 | COc1ccc(CNC(C)c2ccccc2)cc1 (centres undefined) | inactive

Row | Structure (SMILES) | Potency
23 | OCCc1cnccn1 | inactive
24 | Cn1nc(-c2ccc(N3CCOCC3)c(NC(=O)COc3ccccc3)c2)c2ccccc2c1=O | inconclusive: 44.7 µM [inhibitor, partial curve]
25 | Cc1ccc(NC(=O)CN(C)C(=O)C(C)N2CCCC(C(F)(F)F)C2)cc1 (centres undefined) | inactive
26 | CC(=O)N1CCN(c2oc(/C=C/c3ccc(F)cc3)nc2C#N)CC1 | inactive
27 | CCCOc1cc(C)c(S(=O)(=O)Nc2cccnc2)cc1C | inactive
28 | COc1ccc(OC)c(CNC(=O)c2cc(S(=O)(=O)N3CCC(C)CC3)cn2C)c1 | inconclusive: 56.2 µM [inhibitor, partial curve, poor fit]
29 | CN(c1ccccc1)S(=O)(=O)c1nnc(NC(=O)c2ccco2)s1 | inactive
30 | CCOc1ccccc1NC(=O)C(=O)c1cc(C)n(-c2cccc(C)c2C)c1C | inconclusive: 100 µM [inhibitor, partial curve, poor fit]
31 | COc1cccc(NC(=O)CCSc2nc(-c3ccco3)cc(C(F)(F)F)n2)c1 | inconclusive: 17.8 µM [inhibitor, single point]
32 | CCOc1ccc(NC(=O)CCc2nc3cccnc3n2Cc2ccc(OC)cc2)cc1 | inconclusive: 15.8 µM [inhibitor, partial curve, poor fit]
33 | Cc1ccccc1CN1C(=O)c2ccccc2Sc2ccc(C(=O)O)cc21 | inconclusive: 56.2 µM [inhibitor, partial curve, poor fit]
34 | CCOc1ccccc1NC(=O)Nc1ccc2nc(N3CCN(C)CC3)cc(C)c2c1 | inconclusive: 79.4 µM [inhibitor, partial curve]
35 | CCOc1ccc(CCNC(=O)CSc2nc3ccccc3nc2Cc2ccc(C)cc2)cc1OCC | inconclusive: 100 µM [inhibitor, single point]
36 | COc1cc(C(=O)/C=C/c2ccc(SC)cc2)ccc1O | inactive
37 | Cc1nn(-c2ccc3nnc(C)n3n2)c2c1C(c1cccc(OC(C)C)c1)CC(=O)N2 (centres undefined) | inactive
38 | O=C(O)c1csc(-c2ccccc2)c1 | inactive
39 | CCc1nnc(SCC(=O)Nc2ccc(Cl)cc2F)c2cc3occc3n12 | inconclusive: 31.6 µM [inhibitor, full curve]
40 | CCc1ccc(-n2c(SCc3nc(-c4cc(OC)ccc4OC)no3)nnc2-c2ccccc2)cc1 | inconclusive: 17.8 µM [inhibitor, full curve, poor fit]
41 | COc1ccc(-c2ccc(CCC(=O)NC3CCCCC3)o2)cc1 | inactive
42 | CCN(C(=O)c1ccc2[nH]c(C)c(C)c2c1)C1CCS(=O)(=O)C1 (centres undefined) | inactive
43 | O=C(c1cc(-c2ccc(Cl)cc2)nc2ccccc12)N1CCC1 | inconclusive: 44.7 µM [inhibitor, partial curve, poor fit]
44 | CCOC(=O)c1ccc(NC(=O)CC2Nc3cccc4cccc(c34)NC2=O)cc1 (centres undefined) | inconclusive: 3.16 µM [inhibitor, full curve, poor fit]
